# In all, about 33,000 sequences were measured (“E-score (-0.5 to 0.5)”: median about -0.016, highest 2% from about 0.32 on). The list shows a part of the results.
# Biological target: T1, Stp1 (UniProt B3LFK1)
# T1 sequence: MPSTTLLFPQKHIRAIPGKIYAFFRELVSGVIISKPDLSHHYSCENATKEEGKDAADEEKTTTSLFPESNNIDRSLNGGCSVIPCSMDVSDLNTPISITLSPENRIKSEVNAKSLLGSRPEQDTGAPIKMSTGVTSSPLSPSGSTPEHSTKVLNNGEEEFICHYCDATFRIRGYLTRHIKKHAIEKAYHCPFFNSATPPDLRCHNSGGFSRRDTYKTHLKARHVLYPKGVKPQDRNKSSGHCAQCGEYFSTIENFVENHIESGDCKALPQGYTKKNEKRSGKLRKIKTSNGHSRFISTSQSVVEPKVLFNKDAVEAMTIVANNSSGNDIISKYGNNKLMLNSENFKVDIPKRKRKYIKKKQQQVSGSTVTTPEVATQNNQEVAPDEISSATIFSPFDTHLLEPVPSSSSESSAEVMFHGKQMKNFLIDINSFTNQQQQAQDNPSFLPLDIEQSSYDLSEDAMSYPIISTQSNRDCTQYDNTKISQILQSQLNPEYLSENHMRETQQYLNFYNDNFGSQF
# Test: PBM E-score (8-mer binding enrichment) (E-score (-0.5 to 0.5)); higher = stronger / more preferred TF binding; most listed sequences are background and not binding sites
# Details: protein concentration: 200 nM; construct: GST-full length
# Method in brief: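 Each ungapped eight-base word and its reverse complement, pooled, received an E-score from the Universal PBM Analysis Suite. Underlying scans, normalised with masliner, recorded fluorescent anti-GST bound to GST-tagged yeast transcription factors. These were applied at about 100-200 nM to universal all-10-mer Agilent arrays double-stranded by primer extension.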
row,Sequence,PBM E-score
1,CGCTCCGA,-0.14
2,ACAATGGA,0.0567
3,ACGCTTCC,-0.165
4,CTGTACTC,-0.144
5,CGACTGAA,-0.144
6,ACCCCCCA,-0.342
7,GACTAAAC,-0.136
8,TCTATACA,-0.0883
9,CAAGCGTG,-0.0169
10,CGACACAC,0.131
11,CGGAATGA,0.0112
12,AGACAGAG,-0.0784
13,ATGCAGCC,0.0762
14,AAGCGAGG,-0.0815
15,GATCGAGA,-0.0455
16,CAAAACCG,0.0867
17,TACCACGA,-0.0388
18,CGAAGCTC,-0.0828
19,GGACTCGA,-0.122
20,ATACGGTC,-0.0325
21,ATTGGTTC,0.0392
22,ATTGCGCA,-0.0299
23,GGTATAAA,0.0804
24,CCTTCATC,-0.169
25,GAATGCTA,-0.0055

row,Sequence,PBM E-score
1,GACCGCTA,-0.0445
2,TAACATAA,0.199
3,GCCATTCC,0.0785
4,ATTCTGTG,0.128
5,GGCTTCTA,0.0649
6,ACACCACC,-0.219
7,AGGCGCAG,0.188
8,GATATATA,0.314
9,CGCTATGC,-0.0383
10,TGCTCTAA,0.0879
11,ACTACTTC,-0.0239
12,CAGTCTAC,-0.235
13,CGGCAACC,0.266
14,AGGGAAAT,-0.0351
15,GAGTGATA,0.102
16,AACGCCAA,0.0964
17,AGAAGGAG,-0.245
18,CCCGCTCA,-0.0433
19,ATGGCCGG,-0.157
20,ACCCAATC,-0.0735
21,AGAACCAA,-0.0285
22,AGGATTGA,0.0457
23,CTGGGCGC,0.025
24,AGCAATCG,0.0561
25,CAATTGGG,-0.00084

row,Sequence,PBM E-score
1,GACTGGCA,-0.0279
2,ATCTTGTC,0.136
3,CCTTCGCG,0.0983
4,CATTATGG,-0.177
5,CGCATGGA,-0.0379
6,CATTGTTA,0.011
7,CTCTCTGA,-0.237
8,CTAACCGA,-0.0184
9,ATGTGGCC,0.0349
10,AGTGTGGC,0.068
11,GGAACCCA,-0.122
12,CATTCCAG,-0.0668
13,AACGCCCG,0.111
14,CATGAAGC,-0.0775
15,ACATTGCA,-0.0201
16,ACGTTCTG,0.0555
17,CCCCGAGG,-0.247
18,CGGTTAGA,-0.181
19,GGGCCGAA,-0.0546
20,CGATCTCA,-0.134
21,AAACTTGT,0.178
22,ATCCGCAT,0.236
23,CTAGAACC,-0.0247
24,GGCTCCAC,0.0719
25,GCGAGGAA,0.00386

row,Sequence,PBM E-score
1,GCTCGAAC,-0.0559
2,ACACTTAC,0.0666
3,AGTCAAGG,-0.242
4,GACGTCCA,-0.123
5,TATGTTGA,0.0271
6,CCAGGACA,-0.206
7,GATGGTCC,-0.219
8,ACGCAATA,0.218
9,GTCCAAAC,-0.105
10,ACTCACAC,-0.063
11,AACAGAGG,-0.112
12,AAGCAACA,-0.0328
13,CAGGGTGC,-0.251
14,GATGAGAA,0.0259
15,CCGTCCGC,0.124
16,ATAAAGCG,0.102
17,AGTTCGCG,0.0922
18,CGTACGTC,-0.133
19,GTACCATA,-0.129
20,AGAGGTTG,-0.147
21,AAATAGAC,-0.222
22,GGGGAGGA,-0.375
23,AAAACCGT,0.114
24,AATCGGAA,0.153
25,AGCTTCCT,-0.159

row,Sequence,PBM E-score
1,CTTGTAAA,0.0124
2,GCAGGGAA,0.0128
3,CTTCTACA,-0.0471
4,CGCCAACA,-0.0204
5,GAACCTTA,0.0534
6,AGGACCCG,-0.0845
7,ATTTCGTG,0.247
8,AGTAATGG,-0.115
9,ATGGTTGG,-0.12
10,GGGATCTA,-0.2
11,ATGCTGTA,-0.0563
12,GAGTATCC,-0.185
13,CATAGACC,-0.128
14,GGGTTCAC,0.0272
15,ATTTGTAA,0.109
16,AATATATA,0.252
17,CAGCCCTA,0.116
18,CTAACAGC,0.0206
19,AACGCAGT,-0.0994
20,ATAGCCGA,0.0885
21,TCGTCCCA,-0.243
22,CTCAGTGA,-0.101
23,AAGTGCTC,-0.236
24,GCTGTAGA,-0.0322
25,ACAATTCT,0.0384

row,Sequence,PBM E-score
1,ATGTGAAA,0.138
2,ACCACCAA,-0.13
3,GAGTATCA,-0.127
4,TCGCATCA,0.111
5,CAGTAGTA,-0.0834
6,ATGATCAG,-0.0901
7,GGAAGCCC,-0.267
8,CTCTAGCC,-0.139
9,ATCCAGGC,-0.0908
10,CGCGTTGA,0.179
11,CCGAAGAC,-0.119
12,ACCGGAGA,-0.116
13,GCCCTCAA,-0.271
14,CTGTCGTA,-0.0535
15,CGATATAC,0.105
16,GGTCCCTA,-0.0655
17,AACCCGAG,-0.0736
18,CTCGCCGC,0.353
19,CGTAGAGA,-0.0187
20,CTTCTCAA,0.0107
21,ACGTGCTA,-0.0123
22,CACTGCGA,-0.0083
23,ATCCACGC,-0.07
24,GTAATGAC,-0.182
25,CTCTATTC,-0.0597

row,Sequence,PBM E-score
1,GTTTTACA,0.0556
2,GTCTAAGA,0.0284
3,GTAGGTTA,-0.113
4,GCATCGGC,0.084
5,GGCGGAGA,0.0979
6,CAATTCGC,0.18
7,GCGTACCC,-0.144
8,AGGAGACA,-0.143
9,CTGGGTTC,-0.0642
10,GTAAGAGA,-0.0111
11,ACCTTTAT,-0.202
12,CGGTCAAG,-0.0974
13,AAGTAGCG,-0.0826
14,ACGCATCA,-0.0474
15,CAGTTGAA,-0.0323
16,ACTGTAAC,-0.026
17,AGATAGAG,-0.0214
18,CAAGTTCC,-0.109
19,GGCCCCGA,-0.159
20,GAACCAGA,-0.184
21,ACGTGGTG,-0.13
22,AGAATTCG,-0.0131
